# In all, about 33,000 sequences were measured (“E-score (-0.5 to 0.5)”: median about -0.054, highest 2% from about 0.39 on). The list shows a part of the results.
# Biological target: Ylr278c (UniProt Q05854)
# Test: PBM E-score (8-mer binding enrichment) (E-score (-0.5 to 0.5)); higher = stronger / more preferred TF binding; most listed sequences are background and not binding sites
# Conditions: protein concentration: 200 nM; construct: GST-DNA-binding domain
# Procedure, shortened: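 E-scores (a modified Wilcoxon-Mann-Whitney statistic) were assigned by the Universal PBM Analysis Suite to every ungapped eight-base word pooled with its reverse complement. The input came from universal all-10-mer Agilent arrays made double-stranded by primer extension and probed with GST-tagged yeast transcription factors at about 100-200 nM. Fluorescent anti-GST detected bound protein, and masliner normalised the scans.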
row,Sequence,PBM E-score
1,CGAAGAGC,0.231
2,ACGGTCCT,-0.214
3,TTACGGAA,0.283
4,CTTAAGAC,-0.0305
5,CCGCGTAA,0.195
6,ATGCGCTA,-0.123
7,ATGATGGG,-0.208
8,AGTGCCGG,0.386
9,AACCGTGT,-0.0935
10,ACGAGACG,-0.0236
11,GTTTGCCA,-0.145
12,AAACCCAT,0.125
13,CACTAAGC,-0.163
14,AGCTTGAT,-0.281
15,ATAGCAAG,-0.0436
16,GCGTCAAC,0.0422
17,GTTAGTCA,-0.0172
18,CACGCAAG,-0.244
19,ACTGCACC,-0.00176
20,CGGGGACA,0.197
21,CGATCTCC,0.294
22,TTTAGAAA,0.056
23,CGGTTTAC,0.103
24,AGTCCTGA,-0.204
25,GCTCTATA,-0.101

row,Sequence,PBM E-score
1,AATGGACT,-0.188
2,CTGACTGA,-0.285
3,AAAGTGGG,0.032
4,AATTATAT,0.0602
5,CGCGCGAG,0.139
6,AGAACAAA,0.0628
7,CAGCTAGC,-0.126
8,CACGAGAG,-0.139
9,AATGGGAT,0.0269
10,GACCTGAA,0.0825
11,CTAATCTC,-0.0805
12,TCAGCTAA,-0.307
13,CGCATGTC,0.0679
14,GATACATA,-0.0276
15,CGGAACCG,0.337
16,CGTAACCA,-0.0942
17,CCTTCCCC,0.0434
18,ACACCAGA,-0.117
19,AAACGTTA,-0.181
20,CCAAGGGC,-0.205
21,GCCGACAA,0.158
22,ATCTTTGA,-0.0894
23,CTTCAGCA,-0.261
24,AAGACTAG,-0.244
25,GTCTTGAA,0.022

row,Sequence,PBM E-score
1,AAGCCCGT,0.0339
2,TAAAAACA,-0.143
3,GCACAGCC,0.0526
4,ACCCGATG,0.25
5,CCAAACGC,-0.0836
6,TGGGTAAA,-0.133
7,AATGGGAG,-0.0663
8,ACGTTGTG,-0.141
9,CGGCGACA,0.24
10,GAGAAATC,0.152
11,ACGTCTCC,0.11
12,GACTCCGA,0.467
13,AATAAACA,0.0315
14,AGGTGGGA,-0.08
15,GGCATATA,0.0899
16,ACCGCTGA,0.013
17,CTAGGGTA,-0.303
18,ACCTCGAC,-0.178
19,GTTCCAAA,-0.0952
20,AATAGCAG,-0.0178
21,AATCGGTG,0.126
22,ATTCTATC,-0.108
23,AGGACACC,0.0153
24,GATCATGC,-0.167
25,CGAGGAGA,-0.106

row,Sequence,PBM E-score
1,ACAGCGCG,-0.0038
2,ATCTGTGC,-0.167
3,AAGGCAAG,-0.08
4,AGGAAGTC,-0.156
5,AAGTCAGT,-0.0866
6,AGTAATGA,-0.186
7,CGCGCCTC,0.17
8,GCCCGACC,0.164
9,AGTAGATA,-0.0517
10,AGTTGCCC,0.0354
11,AGCCCACC,0.111
12,GGGAAAAA,0.231
13,ACATTGAT,0.0346
14,CAGAGGTC,-0.0838
15,GAGGGCGA,0.0395
16,CTGATTCC,0.0889
17,AAGCACGA,-0.155
18,CACGCCAC,-0.00118
19,CGTCACGC,0.0345
20,AAAACAAA,0.0676
21,GCATTTAC,-0.015
22,AATAGTTG,-0.0614
23,CCCGATCC,0.202
24,ACACCAAA,-0.1
25,GCTGGAAC,-0.0427

row,Sequence,PBM E-score
1,GCACGTGC,0.0173
2,CGGATTCC,0.427
3,AGGTAACC,-0.173
4,CCGTCTGC,0.131
5,AGCCAAAT,0.132
6,AAATGTCG,-0.0387
7,TATTACAA,-0.0558
8,ACAACGAG,-0.147
9,ATGCGGTA,0.131
10,AATCTCAT,-0.0498
11,CTAGGGGA,-0.159
12,CAGTCACA,-0.376
13,CACAATCC,0.09
14,AAGGAGCA,-0.0618
15,CTCGACAG,-0.193
16,ACTCACGA,-0.203
17,ATTTTTAG,-0.0597
18,CTGGTGTC,-0.0758
19,TCGTCGCA,-0.0658
20,CGGAAAGA,0.297
21,GAGCTGCC,0.0529
22,CCAAACTA,-0.0757
23,AACGAACT,-0.202
24,GACACTGC,-0.117
25,CCATAACC,-0.21

row,Sequence,PBM E-score
1,ATCGGTTG,-0.0479
2,ATGAGGCG,0.00606
3,ACGATAGT,-0.235
4,CTGGGGGC,-0.256
5,TGATCACA,-0.139
6,AGCAATGA,-0.0636
7,GGAGTTCA,0.341
8,AGCAACGG,0.191
9,CCTACGTA,-0.204
10,AAATGGCG,0.101
11,CTGGATCA,-0.223
12,CGAATTCA,0.219
13,TAGAACTA,-0.0561
14,CGGCAATA,0.294
15,AGCCAGGC,-0.181
16,ATCCTACC,-0.0503
17,CTCGCAGA,-0.186
18,AGCCGGTG,0.246
19,GAGGGTAC,-0.241
20,AGGTGATC,-0.0481
21,ACGTCCAT,-0.237
22,GGAATTGA,0.298
23,ACTAATGA,-0.0645
24,TCCGCTCA,0.263
25,ATTGAAAC,-0.0378

row,Sequence,PBM E-score
1,GGGTTACA,0.0391
2,ACGTATTA,0.114
3,CACTCGTA,-0.184
4,GCACCTTA,-0.143
5,CAGGATTC,-0.11
6,AGCGCAGG,0.169
7,CGATCACG,0.154
8,CGGCCACG,-0.0321
9,CGCGAAGC,0.124
10,ACAGTCTC,-0.185
11,CGGACTAC,0.386
12,CAGCAGGC,0.0553
13,ACTTAGAG,-0.275
14,GTAGTCGA,-0.0238
15,AGTACATG,-0.00745
16,ACCTGACA,-0.13
17,GGGTGTAC,0.0459
18,ATTACTGG,-0.158
19,ACTATGTG,-0.164
20,CCCAGTCA,-0.242
21,CCGGATCC,0.42
22,CAGCGGTC,-0.0145
